# Data: paper PMC4336329 (PLoS ONE, 2015)
# Out of some 310,000 compounds screened, about 2,200 (0.71%) showed an effect of 50% or more. Effects have a minus sign here. This is one part of the list.
# Biological target: human ether-à-go-go-related gene (hERG) potassium channel (human, UniProt Q12809)
# Experiment: primary screen, population patch clamp on CHO cells stably expressing hERG
# human ether-à-go-go-related gene (hERG) potassium channel, sequence (Q12809 whole entry, looked up): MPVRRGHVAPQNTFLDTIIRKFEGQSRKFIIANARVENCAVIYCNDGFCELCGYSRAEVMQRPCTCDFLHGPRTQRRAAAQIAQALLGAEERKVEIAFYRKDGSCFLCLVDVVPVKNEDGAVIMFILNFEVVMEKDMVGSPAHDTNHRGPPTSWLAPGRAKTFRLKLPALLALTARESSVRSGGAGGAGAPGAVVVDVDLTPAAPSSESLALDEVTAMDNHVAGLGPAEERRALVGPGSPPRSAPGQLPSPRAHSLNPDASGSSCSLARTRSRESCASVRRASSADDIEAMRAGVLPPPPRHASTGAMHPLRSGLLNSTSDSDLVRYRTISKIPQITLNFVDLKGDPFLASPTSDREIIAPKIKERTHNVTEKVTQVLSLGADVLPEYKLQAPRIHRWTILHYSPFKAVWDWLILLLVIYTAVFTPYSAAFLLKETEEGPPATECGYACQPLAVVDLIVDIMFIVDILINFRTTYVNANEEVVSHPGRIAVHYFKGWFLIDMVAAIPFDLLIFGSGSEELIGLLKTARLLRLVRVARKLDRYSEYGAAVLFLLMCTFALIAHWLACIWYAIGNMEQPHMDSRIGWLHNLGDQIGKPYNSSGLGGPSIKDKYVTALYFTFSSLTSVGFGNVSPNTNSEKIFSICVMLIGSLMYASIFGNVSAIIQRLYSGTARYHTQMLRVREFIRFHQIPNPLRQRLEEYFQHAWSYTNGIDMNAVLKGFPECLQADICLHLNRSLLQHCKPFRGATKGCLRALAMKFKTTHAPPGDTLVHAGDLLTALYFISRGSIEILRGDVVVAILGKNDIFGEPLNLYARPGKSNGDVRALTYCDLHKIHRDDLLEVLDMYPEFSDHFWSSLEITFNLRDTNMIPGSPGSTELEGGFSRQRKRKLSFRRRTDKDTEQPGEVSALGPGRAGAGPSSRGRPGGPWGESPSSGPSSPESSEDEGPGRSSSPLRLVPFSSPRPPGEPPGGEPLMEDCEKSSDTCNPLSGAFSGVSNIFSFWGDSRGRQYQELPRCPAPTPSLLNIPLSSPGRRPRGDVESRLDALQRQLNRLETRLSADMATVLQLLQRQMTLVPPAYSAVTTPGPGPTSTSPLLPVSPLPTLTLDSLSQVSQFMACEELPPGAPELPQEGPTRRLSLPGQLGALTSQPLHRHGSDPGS
row,Structure (SMILES),"hERG current change (%, negative = inhibition) at 1uM [%]"
1,CCc1nnc(NC(=O)c2cc(-c3ccccn3)nc3ccccc23)s1,9.61
2,CCOc1ncccc1C(=O)OCCCC(=O)c1ccc(Br)cc1,8.66
3,COC(=O)c1ccccc1NC(=O)C1CC(=O)N(c2ccc(F)cc2)C1 (centres unmarked),-15.5
4,Cc1nnc(SCC(=O)NC(=O)NCCC(C)C)s1,16.7
5,Cc1ccc(S(=O)(=O)N2CCCC2C(=O)O)s1 (centres unmarked),6.46
6,COCC(C)n1c(SCC(=O)NNC(=O)c2ccccc2)nc2ccccc2c1=O (centres unmarked),9.66
7,CC1(C(=O)NC2CCCC2)CCC(=O)N1Cc1ccccc1Cl (centres unmarked),7.5
8,CCOc1ccc(NC(=O)c2ccc(NC(=O)CSc3nc4ccccc4c(=O)[nH]3)cc2)cc1,5.3
9,COc1ccc(C2=NN(c3nc(-c4ccccc4)c(CC(=O)O)s3)C(c3ccco3)C2)cc1 (centres unmarked),8.19
10,Nc1cc(Cl)ccc1C(=O)OCC(=O)NC1CCS(=O)(=O)C1 (centres unmarked),-6.02
11,CCOc1ccccc1NC(=O)COn1nnc2ccccc21,11.8
12,CC(C)CCNC(=O)CCCn1c(=O)[nH]c2ccc(Br)cc2c1=O,13.5
13,CC(C)(C)c1nnc2sc(SCC(=O)c3cccs3)nn2c1=O,-7.08
14,Fc1cccc2sc(N3CCCC3)nc12,6.18
15,Cc1ccc(C)c(NC(=O)COc2cccc3c2CCN(Cc2ccccc2)C3=O)c1,-5.29
16,COCCCn1c(N)c(-c2nc3ccccc3n2C)c2nc3ccccc3nc21,-0.792
17,O=C(CSc1nnc(NC(=O)c2ccccc2)s1)NCC1CCCO1 (centres unmarked),9.21
18,CCN(Cc1ccc(N(C)C)cc1)C(C)C(=O)Nc1ccc(S(=O)(=O)N2CCCC2)cc1 (centres unmarked),10.4
19,CN1CCC(=NNC(=O)C(=O)Nc2ccccc2F)CC1,8.71
20,CC1(C)C(CSc2nc3ccccc3[nH]2)C1(Cl)Cl (centres unmarked),9.58
21,Cc1ccc(NC(=O)COC(=O)CNC(=O)C2CCCCC2)c(Br)c1,10.8
22,NC(=O)C1CCN(S(=O)(=O)c2ccc3c(c2)OCCO3)CC1,8.22
23,CC(C)c1ccc(/C=C/C2=NNC(=O)CC2)cc1,-0.053
24,COc1ccc(S(=O)(=O)N2CCC3(CC2)OCCO3)cc1,5.3
25,COc1cccc(CNc2ncn[nH]2)c1OCc1ccccc1F,4.14
26,CCOc1ccc(N(CC(=O)Nc2c(C)cccc2C)S(=O)(=O)c2c(C)[nH]c(=O)[nH]c2=O)cc1,15.5
